According to PubChem BioAssay AID686979 (National Center for Advancing Translational Sciences (NCATS), 2013):
Out of some 420,000 compounds screened, about 50,000 (12%) were called active. Inconclusive means that the source gave no clear call. Such entries were picked first, then a sample of the others. Calls follow the shape of the dose curve; as a rule, active = well fitted inhibition curve with a large enough effect; inconclusive = small, poorly fitted or top-dose-only effect; inactive = flat fitted curve, though single readings scatter. Potencies of inconclusive entries are left out as doubtful fits. Where a SMILES comes first, the peptide text is derived from it. The star is where a group is joined. Cbz = O=C(OCc1ccccc1)*

assay: qHTS for Inhibitors of human tyrosyl-DNA phosphodiesterase 1 (TDP1): qHTS in cells in presence of CPT; details: chicken DT40 Tdp1-/-;hTDP1 cells + 20 nM CPT, ATP luminescence, 48 h; activity change, negative = growth inhibition: at 46.2 µM (top of the series); also: nearly all actives have a fitted effect of over 55% in size
Method in brief: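 Chicken DT40 Tdp1-/- cells stably complemented with human TDP1 were seeded at 400 cells/well in medium containing 20 nM camptothecin, exposed to pin-transferred compounds, and grown at 37 °C for at least 48 hr. Viability was read as ATP luminescence.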
% is scaled to controls: 0 for no effect and ±100 for the full control effect; potency is read from the fitted curve at half-maximal effect; tags tell the direction and shape of the fitted curve.

Row | Structure (SMILES) | Potency | activity change, negative = growth inhibition
1 | COc1ccc(-c2nnc(CSc3nnc(-c4ccncc4)n3C3CCCCC3)o2)cc1OC | inconclusive [inhibitor, partial curve] | 
2 | COc1ccc(CC(=O)Nc2ccc(OC)nc2)cc1 |  | inactive: 3.75%
3 | CCOC(=O)CSc1nc2c(c(=O)[nH]1)C(C)(CC)Cc1ccccc1-2 (stereo not drawn) | inconclusive [inhibitor, single point] | 
4 | CS(=O)(=O)n1c2ccccc2c(=O)n1-c1ccccc1CCl | inconclusive [inhibitor, partial curve, poor fit] | 
5 | Cc1ccc(S(=O)(=O)N2CCN(c3cnn(-c4ccccc4)c(=O)c3Cl)CC2)cc1 |  | inactive: 0.124%
6 | CC(=O)C1=C(O)C(=O)N(c2ccccn2)C1c1ccccc1[N+](=O)[O-] (stereo not drawn) | inconclusive [inhibitor, single point] | 
7 | Cc1ccc(-n2c(-c3ccccc3)c[nH]c2=S)cc1 | inconclusive [inhibitor, single point] | 
8 | COc1ccc(CNC(=O)COC(=O)c2ccc(Br)cc2)cc1 |  | inactive: -17.8%
9 | COc1ccc(Cl)cc1NC(=O)C(C)Sc1nnc(C2CC2)n1C1CC1 (stereo not drawn) |  | inactive: -8.55%
10 | COc1cccc(-c2cc3nc(NCCN4CCCC4)n(C)c(=O)c3s2)c1 | inconclusive [inhibitor, single point] | 
11 | CCOc1ccc(C(=O)Nc2ccc3oc(-c4cccc5ccccc45)nc3c2)cc1 | inconclusive [inhibitor, single point] | 
12 | O=C1CN(C(=O)c2ccc(S(=O)(=O)N3CCCC3)cc2)C(c2ccccc2)c2cc(Cl)ccc2N1 (stereo not drawn) | inconclusive [inhibitor, single point] | 
13 | C=CS(=O)(=O)N(Cc1ccccc1Br)[C@H](CO)Cc1ccccc1 | active: 7.94 µM | 
14 | CCS(=O)(=O)N1CCC(C(=O)NCCN2CCN(Cc3ccccc3)CC2)CC1 |  | inactive: -13.7%
15 | CCOC(=O)C1CCN(Cc2cnc(Oc3ccc(C(C)(C)C)cc3)s2)CC1 | inconclusive [inhibitor, single point] | 
16 | CC(C)c1nc2ccc(C(=O)NCCCN3CCN(c4ccccc4)CC3)cc2o1 | inconclusive [inhibitor, single point] | 
17 | CCCCCCCCN1C(=O)[C@H](CC(=O)NCCCOCCCC)C[C@@]2(C(=O)OC)CCCCC=C12 | active: 13 µM | 
18 | Cc1ccc(O)c(Nc2nc3ccccc3c3nncn23)c1 | inconclusive [inhibitor, partial curve] | 
19 | COc1cccc(C(=O)Nc2ccc3nc4n(c(=O)c3c2)CCCCC4)c1 | active: 20.6 µM | 
20 | O=C(Nc1nc(-c2ccc(Cl)cc2)cs1)C1CCCO1 (stereo not drawn) | inconclusive [inhibitor, single point] | 
21 | COc1cccc(C2c3cc4c(cc3OC(N3CCCC3)C2C)OCO4)c1O (stereo not drawn) | inconclusive [inhibitor, single point] | 
22 | COc1ccc(CCN(C)CCCOc2ccc(S(=O)(=O)c3[nH]c4ccccc4c3C(C)C)cc2)cc1OC | active: 13.3 µM | 

Row | Structure (SMILES) | Potency | activity change, negative = growth inhibition
23 | CC(C)(C)CC(C)(C)NC(=O)c1ccc2snnc2c1 | inconclusive [inhibitor, single point] | 
24 | CC(C)(O)C(=O)N/N=C\c1ccc(OC/C=C/c2ccccc2)cc1 | inconclusive [inhibitor, single point] | 
25 | Cc1ccc2ccc(S(=O)(=O)NCc3ccccn3)cc2c1 | inconclusive [inhibitor, partial curve] | 
26 | CC(C)=CCc1c(O)cc2oc(C)cc(=O)c2c1O | inconclusive [inhibitor, single point] | 
27 | CCCCn1c(CNC(=O)C23CC4CC(CC(C4)C2)C3)nnc1SC(C)CC (stereo not drawn) | active: 23.1 µM | 
28 | COc1cccc(Cn2c(=O)c(-c3cccc(C#N)c3)nc3cnc(Nc4ccccc4)nc32)c1 |  | inactive: 0.895%
29 | Cc1c(-c2ccc(Cl)cc2)oc(=O)c2c(N)n(-c3ccccc3)nc12 | inconclusive [inhibitor, single point] | 
30 | CC(C)(C)NC(=O)NCC1CCCC1NC(=O)NC(C)(C)C (stereo not drawn) |  | inactive: 4.74%
31 | COc1ccc(OC)c(NC(=O)N2CC(C)Oc3ccc(C)cc32)c1 (stereo not drawn) | inconclusive [inhibitor, single point] | 
32 | COc1cc(C(=O)N2CCC(NC(=O)C(Cc3ccc(C(C)C)cc3)NC(C)=O)CC2)cc(OC)c1OC (stereo not drawn) |  | inactive: -9.82%
33 | CCC(C)C(NC(=O)C(Cc1ccc(O)cc1)NC(=O)OCc1ccccc1)C(=O)OC (stereo not drawn) (Cbz-Tyr-Ile-OMe; configuration not given here) | inconclusive [inhibitor, single point] | 
34 | CC1CC(C)CN(C(=O)COC(=O)c2cccc(S(=O)(=O)N(C)c3ccccc3)c2)C1 (stereo not drawn) | inconclusive [inhibitor, single point] | 
35 | COc1ccc(C)cc1S(=O)(=O)N(C)CC(=O)N1CCCC1 |  | inactive: -16.2%
36 | CCCCCCCCSC1=CC(=O)C(OC)=C(OC)C1=O | active: 1.16 µM | 
37 | CCCCN1C(=O)C(CC(=O)NCc2cccc3ccccc23)CC(C(=O)N(C(C)C)C(C)C)=C1C (stereo not drawn) | inconclusive [inhibitor, single point] | 
38 | CCCc1c(C(=O)Nc2ccc(N3CCOCC3)cc2)cnn1-c1ccccc1 | inconclusive [inhibitor, single point] | 
39 | O=C(Nc1ccc(Br)cn1)c1ccc(Cl)s1 | inconclusive [inhibitor, partial curve] | 
40 | Cc1c(C(=O)N2CCN(C/C=C/c3ccccc3)CC2)oc2c(F)cccc12 | inconclusive [inhibitor, single point] | 
41 | Cc1cc(C)cc(NC(=O)CCc2nc3ccccc3[nH]2)c1 | inconclusive [inhibitor, single point] | 
42 | Cc1occc1-c1nnc(SCC(=O)NC2CCCC2)n1-c1ccccc1 | inconclusive [inhibitor, single point] | 
43 | O=C1CCN(Cc2ccccc2)C=C1c1cccc(O)c1 | inconclusive [inhibitor, single point] | 
